Laboratory results taken from the supplement of paper PMC8728848.
Some of the results follow.

Key:
Assay in all cases: glycan array binding signal (z-score within array); higher = stronger binding
Settings in all cases: glycan notation: IUPAC condensed, linker removed
[1] = target: Fuc(a1-2)[Gal(a1-3)]Gal(b1-4)GlcNAc(b1-2)Man(a1-3)[Fuc(a1-2)[Gal(a1-3)]Gal(b1-4)GlcNAc(b1-2)Man(a1-6)]Man(b1-4)GlcNAc(b1-4)GlcNAc
In short: (§1)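 Glycan array data came from 3228 arrays in the Consortium for Functional Glycomics database, and only arrays with an available protein sequence were kept. Glycan names were put into IUPAC-condensed notation, and columns mapping to the same glycan were averaged. The binding signal is a within-array Z-score, averaged across arrays of one protein sequence run at different concentrations or buffers and across linkers. A negative Z-score can be read as non-binding.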

[2] = target: Fuc(a1-2)[Gal(a1-3)]Gal(b1-4)GlcNAc(b1-2)Man(a1-3)[Fuc(a1-2)[Gal(a1-3)]Gal(b1-4)GlcNAc(b1-2)Man(a1-6)]Man(b1-4)GlcNAc(b1-4)[Fuc(a1-6)]GlcNAc
In short: as §1

[3] = target: Fuc(a1-2)[Gal(a1-3)]Gal(b1-4)GlcNAc(b1-3)GalNAc
In short: as §1

[4] = target: Fuc(a1-2)[Gal(a1-3)]Gal(b1-4)GlcNAc(b1-3)[Fuc(a1-2)[Gal(a1-3)]Gal(b1-4)GlcNAc(b1-6)]GalNAc
In short: as §1

[5] = target: Fuc(a1-2)[Gal(a1-3)]Gal(b1-4)GlcNAc(b1-6)GalNAc
In short: as §1

[6] = target: Fuc(a1-2)[Gal(a1-3)]Gal(b1-4)[Fuc(a1-3)]Glc
In short: as §1

[7] = target: Fuc(a1-2)[Gal(a1-3)]Gal(b1-4)[Fuc(a1-3)]GlcNAc
In short: as §1

[8] = target: Fuc(a1-2)[Gal(a1-3)]Gal(b1-4)[Fuc(a1-3)]GlcNAc(b1-3)GalNAc
In short: as §1

[9] = target: Fuc(a1-2)[Gal(a1-4)]Gal(b1-4)GlcNAc
In short: as §1

[10] = target: Fuc(a1-2)[GalNAc(a1-3)]Gal
In short: as §1

[11] = target: Fuc(a1-2)[GalNAc(a1-3)]Gal(b1-3)GalNAc(a1-3)[Fuc(a1-2)]Gal(b1-4)GlcNAc
In short: as §1

[12] = target: Fuc(a1-2)[GalNAc(a1-3)]Gal(b1-3)GalNAc(b1-3)Gal(a1-4)Gal(b1-4)Glc
In short: as §1

[13] = target: Fuc(a1-2)[GalNAc(a1-3)]Gal(b1-3)GlcNAc
In short: as §1

[14] = target: Fuc(a1-2)[GalNAc(a1-3)]Gal(b1-3)GlcNAc(b1-2)Man(a1-3)[Fuc(a1-2)[GalNAc(a1-3)]Gal(b1-3)GlcNAc(b1-2)Man(a1-6)]Man(b1-4)GlcNAc(b1-4)GlcNAc
In short: as §1

[15] = target: Fuc(a1-2)[GalNAc(a1-3)]Gal(b1-3)GlcNAc(b1-2)Man(a1-3)[Fuc(a1-2)[GalNAc(a1-3)]Gal(b1-3)GlcNAc(b1-2)Man(a1-6)]Man(b1-4)GlcNAc(b1-4)[Fuc(a1-6)]GlcNAc
In short: as §1

[16] = target: Fuc(a1-2)[GalNAc(a1-3)]Gal(b1-3)GlcNAc(b1-3)GalNAc
In short: as §1

[17] = target: Fuc(a1-2)[GalNAc(a1-3)]Gal(b1-3)GlcNAc(b1-6)GalNAc
In short: as §1

[18] = target: Fuc(a1-2)[GalNAc(a1-3)]Gal(b1-4)Glc
In short: as §1

[19] = target: Fuc(a1-2)[GalNAc(a1-3)]Gal(b1-4)GlcNAc
In short: as §1

[20] = target: Fuc(a1-2)[GalNAc(a1-3)]Gal(b1-4)GlcNAc(b1-2)Man
In short: as §1

[21] = target: Fuc(a1-2)[GalNAc(a1-3)]Gal(b1-4)GlcNAc(b1-2)Man(a1-3)[Fuc(a1-2)[GalNAc(a1-3)]Gal(b1-4)GlcNAc(b1-2)Man(a1-6)]Man(b1-4)GlcNAc(b1-4)GlcNAc
In short: as §1

[22] = target: Fuc(a1-2)[GalNAc(a1-3)]Gal(b1-4)GlcNAc(b1-2)Man(a1-3)[Fuc(a1-2)[GalNAc(a1-3)]Gal(b1-4)GlcNAc(b1-2)Man(a1-6)]Man(b1-4)GlcNAc(b1-4)[Fuc(a1-6)]GlcNAc
In short: as §1

[23] = target: Fuc(a1-2)[GalNAc(a1-3)]Gal(b1-4)GlcNAc(b1-3)Gal(b1-4)GlcNAc
In short: as §1

[24] = target: Fuc(a1-2)[GalNAc(a1-3)]Gal(b1-4)GlcNAc(b1-3)Gal(b1-4)GlcNAc(b1-3)Gal(b1-4)GlcNAc
In short: as §1

[25] = target: Fuc(a1-2)[GalNAc(a1-3)]Gal(b1-4)GlcNAc(b1-3)GalNAc
In short: as §1

[26] = target: Fuc(a1-2)[GalNAc(a1-3)]Gal(b1-4)GlcNAc(b1-3)[Fuc(a1-2)[GalNAc(a1-3)]Gal(b1-4)GlcNAc(b1-6)]GalNAc
In short: as §1

[27] = target: Fuc(a1-2)[GalNAc(a1-3)]Gal(b1-4)GlcNAc(b1-6)GalNAc
In short: as §1

[28] = target: Fuc(a1-2)[GalNAc(a1-3)]Gal(b1-4)[Fuc(a1-3)]GlcNAc
In short: as §1

[29] = target: Fuc(a1-2)[GalNAc(a1-3)]Gal(b1-4)[Fuc(a1-3)]GlcNAc(b1-3)GalNAc
In short: as §1

[30] = target: Fuc(a1-2)[GalNAc(a1-4)]Gal(b1-4)GlcNAc
In short: as §1

B1: CvGal2 (Crassostrea virginica) (protein)
chain: MGSSHHHHHHSSGLVPRGSHMRIREAGKRKDTTKVYQIPDGLFPGQQVMLRGRVPWGSKSFSINFSATPRMGEGDILFHLNPRPSEGVCIRNALLNGSWGAEEKWQPYFPFDDGRSFSVKIEVTNDAFRTFVNGRPFVDFLHRTDFRAGKYLTLREGAEYYDVIFQSKPNIPLTTAIHNGMRIGKTIRIRGMCTAQDGFAINFNDNRNNIYFHFNARPAQRTVVRNSYFGSWGNEETAISKEFPFYPFLYFYASFVCMEDKFAVYVNDEHFIDFAHRGNPNNISVLQIKGSVNVLDTECLEPMGEDAMTEVDSGLENGDLFVLNGLMTERGKTFAVNFLNGFTENDDIALHFNPRKSTGEVVLNSRYGGAWQSEEKVALPGVFWSNRPLQVKVETKRNKFKIYVNGVDLAKYKIRGNVEDVHAVQVKGDVFLLETLLLKRLMKPVWERLTGGIRPGTWVTLQGTPKKNWQQFVVNFALDDTLDGDIAFHFNVRRGARQVVRNHRQSGAWGREETVTPFFAFDSEATFEIVFFVKEEKFLIYFNGKLFFEFVHRVPVERITHIYMDGDCNFYEPEVVI
For B1, which “glycan array binding signal (z-score)” value [1] is on record?
The value was 7.14.

And the “glycan array binding signal (z-score)” value [2]?
Its value is 3.4.

What about the “glycan array binding signal (z-score)” value [3] of the same binder?
The value was 0.056.

What about the “glycan array binding signal (z-score)” value [4] of the same binder?
The value was 1.54.

And the “glycan array binding signal (z-score)” value [5]?
Its value is -0.339.

And the “glycan array binding signal (z-score)” value [6]?
The value was -0.332.

What about the “glycan array binding signal (z-score)” value [7] of the same binder?
The value was -0.335.

What about the “glycan array binding signal (z-score)” value [8] of the same binder?
The value was -0.328.

What about the “glycan array binding signal (z-score)” value [9] of the same binder?
Its value is -0.327.

What about the “glycan array binding signal (z-score)” value [10] of the same binder?
The value was -0.04.

And the “glycan array binding signal (z-score)” value [11]?
Its value is 1.57.

And the “glycan array binding signal (z-score)” value [12]?
Its value is 2.72.

And the “glycan array binding signal (z-score)” value [13]?
Its value is 2.53.

What about the “glycan array binding signal (z-score)” value [14] of the same binder?
The value was 4.12.

What about the “glycan array binding signal (z-score)” value [15] of the same binder?
The value was -0.16.

And the “glycan array binding signal (z-score)” value [16]?
Its value is 0.97.

What about the “glycan array binding signal (z-score)” value [17] of the same binder?
The value was 0.17.

What about the “glycan array binding signal (z-score)” value [18] of the same binder?
Its value is -0.075.

And the “glycan array binding signal (z-score)” value [19]?
Its value is 0.484.

And the “glycan array binding signal (z-score)” value [20]?
The value was 2.71.

What about the “glycan array binding signal (z-score)” value [21] of the same binder?
The value was 2.63.

And the “glycan array binding signal (z-score)” value [22]?
Its value is 3.72.

What about the “glycan array binding signal (z-score)” value [23] of the same binder?
Its value is 3.77.

And the “glycan array binding signal (z-score)” value [24]?
The value was 4.33.

And the “glycan array binding signal (z-score)” value [25]?
Its value is 0.693.

What about the “glycan array binding signal (z-score)” value [26] of the same binder?
The value was 6.77.

And the “glycan array binding signal (z-score)” value [27]?
Its value is 1.45.

And the “glycan array binding signal (z-score)” value [28]?
The value was -0.329.

And the “glycan array binding signal (z-score)” value [29]?
The value was -0.333.

And the “glycan array binding signal (z-score)” value [30]?
The value was -0.327.
